# Source: PubChem BioAssay (Tox21)
# Values joined by “and” are separate entries in the source; they are usually repeats but may differ in a detail not shown here. Identical values can stand only once. Inconclusive means that the source gave no clear call. Such entries were picked first, then a sample of the others. For some assays here: Potencies beside an inconclusive call are fits to weak or partial responses and may not hold up. Active and inactive are the calls of the source. Unless noted, calls follow the shape of the dose curve; as a rule, active = well fitted curve in the direction sought with a large enough effect in the repeat runs; inconclusive = weak or mixed curves; inactive = no such curve, though single readings can be large; an effect the other way counts as inactive or inconclusive.
# Columns and labels:
# [1] = qHTS RealTime-Glo MT Cell Viability Assay in HEK293 cells - 24 hour (AID 1224886); also: nearly all actives have a fitted effect of over 50% in size; also: potency is read from the fitted curve at half-maximal effect; as to activity change, negative = cytotoxicity: top concentration of the series differs between compounds; % is scaled to controls: 0 for no effect and ±100 for the full control effect
# How it was run: (§1)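 HEK293 cells were seeded at 600 cells/well together with NanoLuc luciferase and cell-permeant prosubstrate, preincubated 5 h at 37 C/5% CO2, then given compound in DMSO by pintool. Luminescence from viable-cell prosubstrate reduction was read repeatedly over 40 h.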
# [2] = Caspase-3/7 induction in HepG2 cells by small molecules, qHTS cell viability counter screen (AID 1346981); also: nearly all actives have a fitted effect of over 30% in size; also: potency is read from the fitted curve at half-maximal effect; as to activity change, negative = cytotoxicity: % is scaled to controls: 0 for no effect and ±100 for the full control effect
# How it was run: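 HepG2, WT, 2,000 cells/well; 5 hr pre-incubation 37 C/5% CO2; compound pin-transferred from DMSO; 16 hr exposure; CellTiter-Fluor, 1 hr; fluorescence read.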
# [3] = molecular target: Peroxisome proliferator-activated receptor delta (Homo sapiens) (UniProt Q03181); test: qHTS assay to identify small molecule antagonists of the peroxisome proliferator-activated receptor delta (PPARd) signaling pathway (AID 743215; active = well fitted inhibition curve with a large enough effect in the signal ratio in the repeat runs, not every such curve was filed as active; inconclusive = weak or mixed curves, or effect the other way; inactive = no such curve, though single readings can be large or run the other way; the % refers to the signal ratio;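 also: cells stimulated with agonist L165041 at 300 nM final during compound exposure; % is scaled to controls: 0 for no effect and ±100 for the full control effect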); settings: HEK293H PPARd-UAS-bla, beta-lactamase FRET ratio, antagonist, 17 h; ratio activity, negative = inhibition: at 62 µM (top of the series) unless noted
# How it was run: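 Read-out is beta-lactamase FRET fluorescence, measured 2 h after substrate addition at room temperature. Beforehand, UAS-bla HEK293H cells carrying the PPARd reporter were exposed to compounds with L165041 at 300 nM final for 17 h at 37 C.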
# [4] = qHTS assay to identify small molecule agonists of H2AX (AID 1224845; active = well fitted activation curve with a large enough effect in the signal ratio in the repeat runs, not every such curve was filed as active; inconclusive = weak or mixed curves; the % refers to the signal ratio; also: potency is read from the fitted curve at half-maximal effect; as to activation (H2AX phosphorylation): % is scaled to controls: 0 for no effect and ±100 for the full control effect); settings: CHO-K1 phospho-H2AX Ser139 HTRF, 3 h; activation (H2AX phosphorylation): at 154 µM (top of the series) unless noted
# How it was run: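 Wild-type CHO-K1 cells, plated overnight, exposed 3hr at 37C to 15 concentrations (0.76% DMSO final). Lysed, then HTRF anti-pH2AX (S139) cryptate and anti-H2AX-d2 antibodies, 24 hr room temperature; 665/620 nm emission read.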
# [5] = molecular target: Estrogen receptor beta (Homo sapiens) (UniProt Q92731); test: qHTS assay to identify small molecule antagonists of the estrogen receptor beta (ER-beta) signaling pathway (AID 1259378; active = well fitted inhibition curve with a large enough effect in the signal ratio in the repeat runs, not every such curve was filed as active; inconclusive = weak or mixed curves, or effect the other way; inactive = no such curve, though single readings can be large or run the other way; the % refers to the signal ratio; also: potency is read from the fitted curve at half-maximal effect); settings: ER-beta-UAS-bla HEK293T, beta-lactamase FRET ratio, 16 h; activity, negative = inhibition: at 92.4 µM (top of the series) unless noted
# How it was run: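 ER-beta-UAS-bla HEK293T cells in 2% charcoal-stripped FBS medium treated with compound plus 1nM final 17-beta-estradiol for 16 hr at 37C. Beta-lactamase reporter read by FRET substrate fluorescence after 2 hours at room temperature.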
# [6] = molecular target: Nuclear receptor subfamily 1 group I member 2 (Homo sapiens) (UniProt O75469); test: Human pregnane X receptor (PXR) small molecule agonists, qHTS assay (AID 1346982); also: nearly all actives have a fitted effect of over 35% in size; also: potency is read from the fitted curve at half-maximal effect
# How it was run: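 Luciferase signal from ONE-Glo (30 min, room temperature) measured activation of hPXR-driven CYP3A4 reporter expression in PXR-Luc HepG2 cells treated with compounds for 24 hr at 37 C.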
# [7] = qHTS assay to identify small molecule agonists of the sonic hedgehog signaling (Shh) pathway - cell viability counter screen (AID 1259366); also: nearly all actives have a fitted effect of over 50% in size; also: potency is read from the fitted curve at half-maximal effect
# How it was run: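 Same-well cytotoxicity read. Gli1-Luc reporter 3T3 cells; compounds 24hr, 37C/5% CO2; CellTiter-Fluor fluorescence.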
# [8] = qHTS assay to identify small molecule agonists of the farnesoid-X-receptor (FXR) signaling pathway - cell viability counter screen (AID 743218); settings: FXR-bla HEK293T viability, CellTiter-Glo luminescence, 16 h; viability change, negative = cytotoxic: at 62.6 µM (top of the series); also: nearly all actives have a fitted effect of over 45% in size; also: potency is read from the fitted curve at half-maximal effect
# How it was run: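 HEK 293T FXR-bla cells; 5 h pre-incubation, 16 h compound exposure at 37 C; LiveBLAzer substrate 2 h RT, then CellTiter-Glo 30 min RT, luminescence.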
# [9] = molecular target: Luciferin 4-monooxygenase (Photinus pyralis) (UniProt P08659); test: qHTS assay to identify small molecule inhibitors of firefly luciferase (AID 1224835); also: nearly all actives have a fitted effect of over 25% in size; also: potency is read from the fitted curve at half-maximal effect
# How it was run: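 Biochemical qHTS: compounds run as interplate titrations against purified firefly enzyme, with D-luciferin and ATP each at its KM concentration. Light output recorded by CCD imaging.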
# [10] = qHTS RealTime-Glo MT Cell Viability Assay in HEK293 cells - 32 hour (AID 1224868); also: nearly all actives have a fitted effect of over 50% in size; also: potency is read from the fitted curve at half-maximal effect
# How it was run: as §1
# [11] = molecular target: Estrogen receptor (Homo sapiens) (UniProt P03372); test: qHTS assay to identify small molecule agonists of the estrogen receptor alpha (ER-alpha) signaling pathway using the BG1 cell line (AID 743079); settings: BG1Luc4E2 cells, ERE-luciferase agonist, 22 h; activation: at 70.3 µM (top of the series) unless noted; also: nearly all actives have a fitted effect of over 20% in size; also: potency is read from the fitted curve at half-maximal effect
# [12] = qHTS assay to identify small molecule antagonists of the vitamin D receptor (VDR) signaling pathway - cell viability counter screen (AID 743225); settings: VDR-bla HEK293T viability, CellTiter-Glo luminescence, 16 h; viability change, negative = cytotoxic: at 61 µM (top of the series) unless noted; also: nearly all actives have a fitted effect of over 50% in size; also: potency is read from the fitted curve at half-maximal effect
# How it was run: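 Parallel cytotoxicity test: VDR-UAS-bla HEK 293T, 3 nM (final) 1-alpha,25-dihydroxyvitamin D3 with test compound, 16 h, 37C. Endpoint is CellTiter-Glo luminescence in the same wells.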
# [13] = molecular target: Thyrotropin receptor (Homo sapiens) (UniProt P16473); test: qHTS assay to identify small molecule agonists of the thyroid stimulating hormone receptor (TSHR) signaling pathway (AID 1224843; calls by dose curve; also: % is scaled to controls: 0 for no effect and ±100 for the full control effect; nearly all actives have a fitted effect of over 45% in size); settings: TSHR-HEK293 cells, cAMP HTRF, agonist mode, 30 min; activation: at 92.4 µM (top of the series) unless noted
# How it was run: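 TSHR-HEK293 cells in agonist mode, 30 min room-temperature step, then cAMP measured by competitive HTRF (cAMP-d2 with anti-cAMP cryptate) after 1 h at room temperature. Tested at 15 concentrations in triplicate.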
# [14] = qHTS assay to identify small molecule antagonists of the peroxisome proliferator-activated receptor gamma (PPARg) signaling pathway - cell viability counter screen (AID 743194); settings: PPARg-bla HEK293H viability, CellTiter-Glo luminescence, 17 h; Potency: co-treated with 50 nM rosiglitazone unless noted; activity change, negative = cytotoxicity: at 62.6 µM (top of the series), co-treated with 50 nM rosiglitazone unless noted; also: nearly all actives have a fitted effect of over 55% in size; also: potency is read from the fitted curve at half-maximal effect
# How it was run: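 Cytotoxicity counter screen in PPARg-bla HEK293H cells, same wells as reporter assay. Compounds plus 50 nM rosiglitazone (final) for 17 h at 37 C, then viability read by CellTiter-Glo luminescence.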
# [15] = qHTS assay to identify small molecule antagonists of the peroxisome proliferator-activated receptor delta (PPARd) signaling pathway - cell viability counter screen (AID 743213); settings: PPARd-bla HEK293H viability, CellTiter-Glo luminescence, 17 h; viability change, negative = cytotoxic: at 62 µM (top of the series) unless noted; also: nearly all actives have a fitted effect of over 50% in size; also: potency is read from the fitted curve at half-maximal effect
# How it was run: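 PPARd-bla HEK293H cells were treated with compounds plus agonist L165041 (300 nM final) for 17 h at 37 C. Viability was then read in the same wells by CellTiter-Glo luminescence after 30 min at room temperature.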
# [16] = qHTS assay to identify small molecule antagonists of the progesterone receptor (PR) signaling pathway - cell viability counter screen (AID 1346798)
# How it was run: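 Following a 4 hr attachment, PR-UAS-bla HEK293T cells in charcoal-stripped FBS medium were exposed to compounds with R5020 for 16 hr; CellTiter-Glo was added and luminescence read after 30 min at room temperature.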
# [17] = qHTS RealTime-Glo MT Cell Viability Assay in HEK293 cells - 16 hour (AID 1224872)
# How it was run: as §1
# [18] = qHTS RealTime-Glo MT Cell Viability Assay in HEK293 cells - 8 hour (AID 1224887); also: nearly all actives have a fitted effect of over 50% in size; also: potency is read from the fitted curve at half-maximal effect
# How it was run: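 Cells were seeded together with NanoLuc luciferase and a prosubstrate that viable cells reduce to a luciferase substrate. After a 5 h incubation at 37 C/5% CO2, compounds were added and luminescence was measured repeatedly during 40 h of treatment.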
# [19] = qHTS assay to identify small molecule antagonists of the estrogen receptor alpha (ER-alpha) signaling pathway using the BG1 cell line (AID 743080; calls by dose curve;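 also: BG1 cells stimulated with 17beta-estradiol alongside compound; nearly all actives have a fitted effect of over 25% in size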; also: potency is read from the fitted curve at half-maximal effect); settings: BG1Luc4E2 ERE-luciferase antagonist mode, luminescence; activity change, negative = inhibition: at 70.3 µM (top of the series) unless noted
# How it was run: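 BG1-Luc-4E2 cells (endogenous full-length ER-alpha, stable 4×ERE-luciferase) were starved 5 days in phenol-red-free medium with 10% charcoal-stripped FBS, plated 24 h, then given compound plus 17beta-estradiol for 21.5 h at 37 C; ONE-Glo luminescence read after 30 min.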
# [20] = qHTS assay to identify small molecule antagonists of the estrogen related receptor (ERR) signaling pathway from Tox21 library - cell viability counter screen (AID 1224834); also: nearly all actives have a fitted effect of over 30% in size; also: potency is read from the fitted curve at half-maximal effect
# How it was run: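 Fluorescence from CellTiter-Fluor gives the viability read-out, taken 30 min after reagent addition. Before that, ERR cells seeded 6 h earlier were incubated with compounds for 17.5 h at 37 C.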
# Tags tell the direction and shape of the fitted curve or compound fluorescence and quenching.
# Sequence of UniProt Q92731 (Q92731 whole entry, looked up): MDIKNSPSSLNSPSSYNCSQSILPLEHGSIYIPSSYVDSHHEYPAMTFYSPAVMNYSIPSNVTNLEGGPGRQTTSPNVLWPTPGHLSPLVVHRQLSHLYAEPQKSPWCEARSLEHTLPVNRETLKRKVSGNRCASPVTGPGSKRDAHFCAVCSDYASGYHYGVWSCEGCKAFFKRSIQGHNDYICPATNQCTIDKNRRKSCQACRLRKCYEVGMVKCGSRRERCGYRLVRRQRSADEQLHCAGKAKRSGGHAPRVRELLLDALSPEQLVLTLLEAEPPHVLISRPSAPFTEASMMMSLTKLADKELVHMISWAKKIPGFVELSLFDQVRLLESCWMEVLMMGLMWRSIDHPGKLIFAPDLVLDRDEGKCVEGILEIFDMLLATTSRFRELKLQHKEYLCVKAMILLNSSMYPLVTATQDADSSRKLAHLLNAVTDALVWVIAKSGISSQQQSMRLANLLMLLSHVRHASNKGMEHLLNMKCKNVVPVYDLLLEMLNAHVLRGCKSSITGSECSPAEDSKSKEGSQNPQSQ
# Sequence of UniProt Q03181 (Q03181 whole entry, looked up): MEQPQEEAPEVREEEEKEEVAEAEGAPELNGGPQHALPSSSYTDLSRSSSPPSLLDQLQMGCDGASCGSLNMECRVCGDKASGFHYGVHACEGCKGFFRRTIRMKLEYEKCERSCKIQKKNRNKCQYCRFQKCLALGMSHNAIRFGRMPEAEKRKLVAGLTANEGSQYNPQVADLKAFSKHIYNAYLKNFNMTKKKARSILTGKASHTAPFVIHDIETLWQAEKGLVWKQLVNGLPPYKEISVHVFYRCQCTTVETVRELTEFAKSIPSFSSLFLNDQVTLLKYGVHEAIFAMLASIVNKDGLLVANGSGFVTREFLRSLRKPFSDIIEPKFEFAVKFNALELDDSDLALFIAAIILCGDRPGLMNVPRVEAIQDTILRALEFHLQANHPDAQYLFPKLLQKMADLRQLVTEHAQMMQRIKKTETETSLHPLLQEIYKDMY
# Sequence of UniProt P03372 (P03372 whole entry, looked up): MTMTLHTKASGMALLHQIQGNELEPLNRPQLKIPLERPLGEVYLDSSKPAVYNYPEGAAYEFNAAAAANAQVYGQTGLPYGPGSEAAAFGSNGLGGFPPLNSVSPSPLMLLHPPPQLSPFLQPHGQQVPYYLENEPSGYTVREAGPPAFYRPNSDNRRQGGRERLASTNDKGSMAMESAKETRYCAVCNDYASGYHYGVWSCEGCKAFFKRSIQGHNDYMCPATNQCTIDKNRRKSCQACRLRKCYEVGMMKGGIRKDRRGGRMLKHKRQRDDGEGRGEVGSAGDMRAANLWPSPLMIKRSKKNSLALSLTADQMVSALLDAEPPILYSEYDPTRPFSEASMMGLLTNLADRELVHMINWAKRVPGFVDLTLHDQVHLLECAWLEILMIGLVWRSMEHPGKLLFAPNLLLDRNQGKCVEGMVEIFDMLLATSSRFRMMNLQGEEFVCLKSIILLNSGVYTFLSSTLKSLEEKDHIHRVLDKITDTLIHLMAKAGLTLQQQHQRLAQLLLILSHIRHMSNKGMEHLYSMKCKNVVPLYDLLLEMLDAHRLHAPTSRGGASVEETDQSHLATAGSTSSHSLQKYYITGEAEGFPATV
# Sequence of UniProt P16473 (P16473 whole entry, looked up): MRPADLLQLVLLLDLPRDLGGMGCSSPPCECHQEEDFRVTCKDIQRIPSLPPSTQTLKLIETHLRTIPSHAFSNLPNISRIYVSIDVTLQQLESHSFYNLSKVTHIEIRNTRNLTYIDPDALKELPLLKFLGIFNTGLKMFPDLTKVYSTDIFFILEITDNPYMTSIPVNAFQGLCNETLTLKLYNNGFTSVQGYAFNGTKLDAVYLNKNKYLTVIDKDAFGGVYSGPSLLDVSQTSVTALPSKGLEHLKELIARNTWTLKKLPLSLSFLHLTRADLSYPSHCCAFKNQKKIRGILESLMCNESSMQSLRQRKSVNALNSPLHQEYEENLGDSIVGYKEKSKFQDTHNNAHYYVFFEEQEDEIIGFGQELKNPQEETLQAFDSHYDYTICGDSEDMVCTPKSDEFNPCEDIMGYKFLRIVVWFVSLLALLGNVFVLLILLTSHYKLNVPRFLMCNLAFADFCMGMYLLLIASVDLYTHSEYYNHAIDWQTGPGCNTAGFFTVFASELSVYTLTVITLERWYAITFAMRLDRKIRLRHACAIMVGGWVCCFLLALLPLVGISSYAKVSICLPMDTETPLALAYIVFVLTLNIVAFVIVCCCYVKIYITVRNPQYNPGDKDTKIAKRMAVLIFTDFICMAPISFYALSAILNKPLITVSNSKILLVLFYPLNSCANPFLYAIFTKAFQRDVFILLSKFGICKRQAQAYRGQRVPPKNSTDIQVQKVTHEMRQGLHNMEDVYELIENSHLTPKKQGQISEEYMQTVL
# Sequence of UniProt O75469 (O75469 whole entry, looked up): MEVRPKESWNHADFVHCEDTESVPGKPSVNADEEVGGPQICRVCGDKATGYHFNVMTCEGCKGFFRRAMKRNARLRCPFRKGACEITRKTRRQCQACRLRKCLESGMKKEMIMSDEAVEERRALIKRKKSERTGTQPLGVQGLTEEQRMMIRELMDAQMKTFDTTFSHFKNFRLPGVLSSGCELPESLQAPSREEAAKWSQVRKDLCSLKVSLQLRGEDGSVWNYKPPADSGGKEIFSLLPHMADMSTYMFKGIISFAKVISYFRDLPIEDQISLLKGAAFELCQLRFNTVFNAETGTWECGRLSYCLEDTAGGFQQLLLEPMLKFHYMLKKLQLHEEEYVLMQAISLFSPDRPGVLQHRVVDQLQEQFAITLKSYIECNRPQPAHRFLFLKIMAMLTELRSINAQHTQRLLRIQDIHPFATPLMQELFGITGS
# Sequence of UniProt P08659 (P08659 whole entry, looked up): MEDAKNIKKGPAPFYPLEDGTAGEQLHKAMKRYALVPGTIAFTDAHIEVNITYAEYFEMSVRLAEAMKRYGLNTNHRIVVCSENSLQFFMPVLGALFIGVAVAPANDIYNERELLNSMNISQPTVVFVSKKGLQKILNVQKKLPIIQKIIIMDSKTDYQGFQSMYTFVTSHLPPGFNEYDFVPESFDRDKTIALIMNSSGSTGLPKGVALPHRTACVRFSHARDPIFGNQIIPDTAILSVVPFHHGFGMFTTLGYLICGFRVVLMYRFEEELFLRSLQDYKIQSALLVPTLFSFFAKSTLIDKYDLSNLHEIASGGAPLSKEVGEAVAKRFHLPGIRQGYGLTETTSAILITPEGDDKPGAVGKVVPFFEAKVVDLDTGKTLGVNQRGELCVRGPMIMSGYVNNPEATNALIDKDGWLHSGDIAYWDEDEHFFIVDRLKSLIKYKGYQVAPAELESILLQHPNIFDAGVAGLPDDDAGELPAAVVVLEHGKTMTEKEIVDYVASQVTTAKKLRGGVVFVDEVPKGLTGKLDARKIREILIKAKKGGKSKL
smiles,measurement,setting,value
CN(CCCC(O)c1cccnc1)N=O (centres undefined),Potency,[1],inactive
same,Potency,[2],inactive
NNC(N)=O,Potency,[3],inactive
same,Potency,[4],inactive
same,Potency,[5],inactive
same,Potency,[2],inactive
same,Potency,[6],"inconclusive: 19.8 µM [activator, partial curve]"
CN1CC[C@]23c4c5ccc(O)c4O[C@H]2[C@@H](O)CC[C@H]3[C@H]1C5,Potency,[7],inactive
same,Potency,[5],"inconclusive: 67.3 µM [activator, single point]"
CCCCC(CC)COC(=O)CCCCC(=O)OCC(CC)CCCC (centres undefined),Potency,[3],inactive
Cc1ccc(-c2nc3ccc(C)cn3c2CC(=O)N(C)C)cc1,Potency,[8],"inconclusive: 33.5 µM [cytotoxic, single point]"
same,Potency,[9],"inconclusive: 27.5 µM [inhibitor, partial curve]"
same,Potency,[10],"inconclusive: 16.9 µM [cytotoxic, partial curve]"
same,Potency,[1],"inconclusive: 16.9 µM [cytotoxic, partial curve, poor fit]"
same,Potency,[7],"inconclusive: 15 µM [cytotoxic, partial curve]"
same,Potency,[2],"inconclusive: 29.8 µM [cytotoxic, partial curve]"
CCC1(CC)C(=O)C=CNC1=O,Potency,[11],inactive
same,Potency,[7],inactive
same,"activity, negative = inhibition",[5],inconclusive: 34.5% [at 42.5 µM]
CCCCN(CCCC)C(=S)[S-].CCCCN(CCCC)C(=S)[S-].[Ni+2],activation,[11],inconclusive: -4.68% [phenotype inactive]
same,Potency,[12],inactive
same,Potency,[2],"inconclusive: 0.299 µM [cytotoxic, single point]"
same,Potency,[6],inactive
CCOC(=O)COc1ccc(Cl)cc1Cl,Potency,[3],inactive
same,activation,[13],inconclusive: -31.6%
N#CC(C#N)=Cc1ccc(O)c(O)c1,Potency,[14],"inconclusive: 0.075 µM [rising, full curve, poor fit]"
same,Potency,[15],inactive
same,Potency,[3],inactive
same,Potency,[4],inconclusive: 55.2 µM
same,Potency,[5],"inconclusive: 13.3 µM [rising, partial curve]"
same,Potency,[16],"inconclusive: 2.98 µM [cytotoxic, partial curve]"
C[C@]12N[C@H](Cc3ccccc31)c1ccccc12,Potency,[11],inactive
CC(C)NC(C)Cc1ccc(I)cc1 (centres undefined),Potency,[11],active: 21.1 µM
CCC1(C2=NCCN2)Cc2ccccc2O1 (centres undefined),Potency,[15],inactive
same,Potency,[1],inactive
same,Potency,[5],"inconclusive: 4.22 µM [activator, partial curve]"
CCOC(=O)c1ccccc1S(=O)(=O)NC(=O)Nc1nc(Cl)cc(OC)n1,Potency,[9],inactive
same,Potency,[13],inactive
same,Potency,[10],"inconclusive: 61.6 µM [rising, single point]"
same,Potency,[17],"inconclusive: 61.6 µM [rising, single point]"
same,Potency,[1],"inconclusive: 61.6 µM [rising, single point]"
same,Potency,[18],"inconclusive: 61.6 µM [rising, single point]"
NC1(c2ccccc2)CCCCC1,Potency,[19],inactive
same,Potency,[14],inactive
same,Potency,[3],inactive
same,Potency,[20],"inconclusive: 76.3 µM [cytotoxic, single point]"
same,Potency,[1],inactive
same,Potency,[7],active: 30.4 µM
same,"activity, negative = inhibition",[5],inconclusive: -27.5%
COc1ccccc1N1CCNCC1,Potency,[15],"inconclusive: 0.266 µM [cytotoxic, single point]"
same,Potency,[8],inactive
same,Potency,[13],inactive
CC(Cl)C(=O)O (centres undefined),Potency,[15],"inconclusive: 14.3 µM [rising, single point]"
same,Potency,[8],"inconclusive: 0.128 µM [cytotoxic, full curve]"
same,Potency,[12],"inconclusive: 0.203 µM [cytotoxic, single point]"
same,Potency,[20],inactive
CCCC[N+]1(C)CCCC1 (tested in a mixture with another compound),Potency,[15],"inconclusive: 7 µM [cytotoxic, full curve, poor fit]"
same,Potency,[20],inactive
same,Potency,[4],inactive
same,Potency,[2],"inconclusive: 69.4 µM [cytotoxic, partial curve, poor fit]"
C=CCOC(=O)C(C)(C)OC(=O)c1cc(-n2c(=O)cc(C(F)(F)F)n(C)c2=O)ccc1Cl,Potency,[19],active: 26.8 µM
same,Potency,[12],inactive
same,Potency,[20],"inconclusive: 47.6 µM [cytotoxic, partial curve, poor fit]"
same,Potency,[10],"inconclusive: 38.1 µM [cytotoxic, partial curve]"
same,Potency,[17],"inconclusive: 42.8 µM [cytotoxic, partial curve]"
same,Potency,[18],"inconclusive: 42.8 µM [cytotoxic, partial curve]"
O=C(O)c1nc(Cl)ccc1Cl,Potency,[11],"inactive and inconclusive: 43.2 µM [activator, partial curve]"
same,Potency,[15],"inconclusive: 1.23 µM [cytotoxic, single point]"
same,Potency,[18],inactive
same,Potency,[2],inactive
CCCCC#N,Potency,[12],inactive
same,Potency,[20],inactive
CN1C(=O)COc2c(C(=O)NC3CN4CCC3CC4)cc(Cl)cc21 (centres undefined),Potency,[12],inactive
same,Potency,[10],inactive
